# Test results: the RNAGym collection of RNA variant scans (doi:10.7554/elife.90254)
# Read counts are not given, so values of variants with three or more changes are uncertain.
# B1: LINE1-full (parent)
# chain: UACGUAGGUGGUUUUCCCCUGAUAGUGCUAAGGGGGCCUGGAAGUUUGGACUGGGCAGAGCUCAACACAGCGUGGCAAAGUGGCUGUGGCUAGACUGCCUCUCUGGAUUCCUCGUCACUCAGCAGGGCAUCUCUGAGAGAAAUGCC
# Variants of: B1
# Assay: self-cleavage, relative activity (ratio to wild type); higher = more cleavage; in vitro, sequencing; the parent is a self-cleaving ribozyme
row,Variant,self-cleavage
1,G4A U14C U20C A117G U134C,0
2,G4A U14C U96C,0.26
3,G4A U20C U115C,2.67
4,G4A U23C U104A U132C,0.84
5,G4A U26A G89C U130G A138G,0.08
6,G4A U26G C71U U143C,0.64
7,G4A U39C U52G U62A,0.05
8,G4A U45A U143G,1.43
9,G4A U45C U85A C98A,0
10,G4A U47C G105A,0.87
11,G4A U62A U85A,0.09
12,G4A U62C A129G,0
13,G4A U73C U81C,1.67
14,G4A U85C A94G U102A A121U,0.44
15,G4A U85C G89U,0.09
16,G4A U91C A107U G127A,0.57
17,G4A U119A A121G,1.61
18,G4C A64U G86A U104C U134C,0.07
19,G4C A124U U134A,0.92
20,G4C G27A U46A,1.1
21,G4C G35A G48A,0.78
22,G4C G74U A92G,0.12
23,G4C U5C U20C A77U A92G,0.78
24,G4C U13C A59G,0.15

row,Variant,self-cleavage
1,G4C U13C U39C U87A,0.31
2,G4C U13C U62A U73A U143A,0.09
3,G4C U46G U47C,1.02
4,G4C U87C U115C,0.54
5,G4C U134A A142G,0.22
6,G4U A50U A78G C113A U115C,1.11
7,G4U A57U U81C,0.3
8,G4U A79G U102C A107G,0
9,G4U U29C A30U G139A,1.06
10,G4U U52A U87G U119C,0.31
11,G4U U87C A121U A142G,0
12,G4U U100A U112C,1.12
13,U5A A22G G144A,1.03
14,U5A A22G U45C A79G G80A,0.89
15,U5A A22G U62C,0
16,U5A A30U U112C,0.91
17,U5A A42G A65U,0.37
18,U5A A42G A138G U143C,0.32
19,U5A A42G U87A U115C,0.26
20,U5A A43U A57G A77G A79G G97A A107G,0
21,U5A A50G A78U A142G,1.2
22,U5A A50G A121G C146U,1.84
23,U5A A50G U85C U115C,0
24,U5A A50G U134A,0.36

row,Variant,self-cleavage
1,U5A A57U U62A U96G,0
2,U5A A57U U108C,0.13
3,U5A A65G U134A,0.24
4,U5A A69G U115A U119A,0.33
5,U5A A69U A79G U81C U108C,0
6,U5A A77U C146U,1.06
7,U5A A78G G105A,1.13
8,U5A A92G C98A,0.26
9,U5A A94G U115C,0.4
10,U5A C16U C28A,0.82
11,U5A C19A U23C A43U A117U A136U,0.78
12,U5A C66U A129G A142G,0.03
13,U5A C66U U73A,0.05
14,U5A G32A A57G U143C,0
15,U5A G32C A140G,1
16,U5A G33A U85C,0
17,U5A G34A U45G A67G,0.22
18,U5A G35A A64U A121G,0.12
19,U5A G36U U102C A124C A140G,2.36
20,U5A G60A A124G U143C,0.12
21,U5A U9A U52C G58A,0.11
22,U5A U12C A78G,1.1
23,U5A U12G U20C U112C U143A,1.12
24,U5A U13A U108C,0

row,Variant,self-cleavage
1,U5A U14C A57U,0.22
2,U5A U14C C61U U108A A117G,0.1
3,U5A U15A U47C G72U,1.06
4,U5A U15C U91C,1.05
5,U5A U23C U45C A65G,0
6,U5A U39C C99U,0.16
7,U5A U46C U104G A138G,2.16
8,U5A U46G U62A U85A A129G,0
9,U5A U62A A69G A107U C133A U143C,0.27
10,U5A U73C U96A C110U U130C,0.1
11,U5A U73C U100C,2.3
12,U5A U85A A94G C99U U112A,0
13,U5A U96A A140G,0.19
14,U5A U96C U108C,0
15,U5A U109C U112C,1.38
16,U5C A6C A92G,0.18
17,U5C A6G G70A,0.62
18,U5C A6G U12G U47C A64U U115C,2.76
19,U5C A6G U14A C111A U132C,1.18
20,U5C A22C U52A C56A U62C G74U,0.11
21,U5C A22G A129U,1.53
22,U5C A22G U52A,2.12
23,U5C A22U A30U,0.94
24,U5C A22U A43G U62C A136G,0

row,Variant,self-cleavage
1,U5C A22U A65G U96A G125U U134C,0.02
2,U5C A24G A43G A78U U85C,0
3,U5C A24U U26C C113A,1.04
4,U5C A30G U45C A140G,0.93
5,U5C A30G U119C,0.68
6,U5C A31U A43G,1.1
7,U5C A31U A141G,0.86
8,U5C A31U U45A,1.14
9,U5C A31U U52A U109A A124G,0.61
10,U5C A42G A43G U85A,0.69
11,U5C A42G A50U U62C,0.26
12,U5C A42G C90U C123A A124G,0.07
13,U5C A42G U62A A78G A140U,0.29
14,U5C A42G U62C A79G U130A,0.53
15,U5C A42G U130C,0.77
16,U5C A50G U112C,2.04
17,U5C A50U A141G,0.86
18,U5C A57C U130C,0
19,U5C A57G U87A,0.14
20,U5C A57G U134A,0.44
21,U5C A57U U109C C113U,0
22,U5C A59G U85C U96A U134C,0.54
23,U5C A59G U134C,0.29
24,U5C A64G A77G U81A C131U,0.78

row,Variant,self-cleavage
1,U5C A67U A141G,0.24
2,U5C A69G U85C G86U,0
3,U5C A69U U119C,0.14
4,U5C A77G C103A U104C,1.02
5,U5C A77U U102C,0.43
6,U5C A78G A121U U132C,2.34
7,U5C A78G A142G,1.7
8,U5C A78G U109A U130C,1.25
9,U5C A79G C118U,0.52
10,U5C A94G U108C,1.15
11,U5C A121G A129G,0.61
12,U5C A129U A141G,1.11
13,U5C C16A U100A U115C A124G,0.54
14,U5C C18U G70C U104A U112A C146U,0.07
15,U5C C19A A43U A78G,0.69
16,U5C C19A U20A A22G U130C,0.22
17,U5C C28U A77G U115A A138C,1.46
18,U5C C37A A79G U115A,1.02
19,U5C C38U A50G,0.5
20,U5C C38U A77G,0.33
21,U5C C51A U115C,1.62
22,U5C C68G A117U,0.05
23,U5C C118U U134C,1.22
24,U5C G35U C120A,1.03

row,Variant,self-cleavage
1,U5C G40A G97A A129G,0.23
2,U5C G40A U81A,0.28
3,U5C G48A G135A,0.73
4,U5C G53U G86U,0.19
5,U5C G54U U102C,0
6,U5C G55C U62C A136G,0.14
7,U5C G72A U119A,1.34
8,U5C G82A U102A,1.72
9,U5C U9A G35U A64G A78U,0.25
10,U5C U9A U62C,0
11,U5C U9C A50U U85C U87A U132C U134C,0
12,U5C U9C U12C A124G U134C,0
13,U5C U9C U81A,1.55
14,U5C U9G A64G,0.71
15,U5C U12C C71U A136G,0.94
16,U5C U12G A59G G75A G122U G125A A129G,0.16
17,U5C U12G U14C G36C G48A U73C,1
18,U5C U13A A43G A79G,0
19,U5C U13A U45C A78G,0.88
20,U5C U13A U100C,0
21,U5C U13C A142G,1.21
22,U5C U14A A94G,1.78
23,U5C U14A U52A C145G,0.34
